# According to the supplement of paper PMC11417369:
# ± gives the standard deviation of the averaged measurements. The list shows a part of the results.
# Test system: PfAP2-EXP AP2 domain (GST-tagged)
# Assay: gcPBM binding intensity (ln(normalized median fluorescence intensity)); higher = stronger DNA binding
# In short: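 The binding buffer was 1× PBS containing 1% milk, 0.2 mg/ml BSA, 0.5% salmon testes DNA and 0.03% Triton X-100. In it, GST-tagged P. falciparum DNA-binding domains expressed in E. coli were applied for 1 h to an Agilent 4 × 180k array of primer-extended double-stranded 36-bp intergenic genomic probes plus negative controls. Binding intensity, read with Alexa488 anti-GST antibody and a 488 nm scan, is the highest Masliner-normalised natural-log median intensity across replicate spots of either probe orientation.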
row,Sequence,gcPBM binding intensity (ln)
1,GAATAATTAAAAGGTAGTACAAAGGTTATCAAAAGG [XGTACX_site8496],8.93 ± 0.26
2,AGAAAACCGAAAGAGACACACAACATGTCGATTTAG [CACACA_site3764],8.74 ± 0.53
3,TTGTTCTTTTGAAAGGTGCAAAAGAAAAATAATTAA,8.945 ± 0.007
4,ACGAAGTATATGAATACACACATATTTTTAATGAAA [CACACA_site4070],8.32 ± 0.27
5,TTTTTAATCAGAAATATTTATTAAAGAATTTTATAG [GTGCAC_negctrl_site725],7.81 ± 0.47
6,ATATACATAATTTGGAGTACAATATCATATAAATAT [XGTACX_site6334],8.43 ± 0.37
7,AGTAAATTTGATGGTCGTACAAAAAAAAAGTAGGAC [XGTACX_site2600],9.17 ± 0.4
8,AATGTACAAATACGTACACACATATATATATATATA [CACACA_site1542],10.1 ± 0.42
9,GTATAAAATATTTTATGTACATAATATATATATATA [XGTACX_site2489],9.78 ± 0.18
10,AAATAAAGGAAATGTATATCAACATTAAAATAAGGC [CACACA_negctrl_site441],8.95 ± 0.38
11,TATATGTATGTTTGTGTGCACACATAAATATTATAT,8.76 ± 0.13
12,TTTTACAATAACAATACACACTATAATATGTAAATA [CACACA_site6772],8.36 ± 0.099
13,CATTTAAAATTTGTTTGTACATATATATATATATAT [XGTACX_site6729],10.2 ± 0.26
14,ATATATATATATATATGTACTTATGTCATCATTAAA [XGTACX_site5316],10.3 ± 0.35
15,TAGTATAATATGAACACACACACACCGACAAAAAAA [CACACA_site5151],8.87 ± 0.58
16,ATATAATTTATATATTCACACAAGGAATACTTTTAT [CACACA_site5506],8.24 ± 0.33
17,AATTGAAAAAGAAATTGTACATTTTATTTTTATTAT [XGTACX_site1973],8.26 ± 0.39
18,ACTATACAGTTATACACACACATATATCTATAATAT [CACACA_site6283],8.73 ± 0.35
19,ATACATATATATATATGTACATATGTATTTTTTATT [XGTACX_site105],8.63 ± 0.38

row,Sequence,gcPBM binding intensity (ln)
1,TTTACATATTTATATACACACTTTTGCGTGCGTGGT [CACACA_site6647],8.53 ± 0.55
2,AATAAAATATATTCCTGTACATATGATTCTTTTTTT [XGTACX_site7980],8.55 ± 0.57
3,GGATAATATATTAGAACACACATATATATGTAAAAA [CACACA_site185],8.88 ± 0.35
4,ATGGAATAATCACGTACACACAAGAAAAAAAAAAAT [CACACA_site527],8.8 ± 0.56
5,ATTACAAATACAAACACACAAATGTTTTTCATTCAA [CACACA_site7639],8.22 ± 0.36
6,TTTTATTTGACAAGCACACACTTAAATATATATATA [CACACA_site5792],9.57 ± 0.042
7,AAACAAAAAATAAAATGTACATTTATTACGATAAGT [XGTACX_site2392],9.04 ± 0.34
8,TATATAAATAAAAAAAGTACATTACTTTTTAATTTA [XGTACX_site285],7.9 ± 0.34
9,ATCATACCTTTTAATGTACACACATTTCTTTTTTGT [CACACA_site8198],8.84 ± 0.47
10,AGAAAGGATATTATATGTACATATCTTTGTATTTTT [XGTACX_site5040],8.47 ± 0.28
11,CATACCCATAAACACACACACATATATACCTATATA [CACACA_site4745],8.62 ± 0.49
12,TTCATTTTATTTTAAGTGCATATTTTTATTTTTTTG,8.66 ± 0.24
13,TTTTTAATTCAAAAAACTGTATGTTATATGTCAAAT [CACACA_negctrl_site72],8.29 ± 0.39
14,TAGTATGATAACTTGGGTACATAAATATGGAGTATC [XGTACX_site1296],8.82 ± 0.38
15,AGAATTTAGAAACAATGTTGTATATGTAATACCTTT [XGTACX_negctrl_site149],8.35 ± 0.42
16,TATATATATAAAAAAAGTACGTATTTAATAAAAATA [XGTACX_site4992],8.86 ± 0.33
17,GATATTATGTGTTTGGTATTTCGATCTTGTCAGGAC [CACACA_negctrl_site426],8.71 ± 0.52
18,ATTTCTATATATTGTGCATGCCATTACACCAAATAT [TGCATGCA_site813],9.37 ± 0.33
19,TATATATATAAATACACACACACATATATATATATA [CACACA_site4585],10 ± 0.16

row,Sequence,gcPBM binding intensity (ln)
1,GTATATAATTTATATTGTACGCATATTATTATCATT [XGTACX_site7277],8.57 ± 0.25
2,AATATACAAATTACAAGTACAAATCAATATTATATG [XGTACX_site7521],8.53 ± 0.28
3,AAAAAAAAAAAAAAAACACACAAACAAATGAATAAA [CACACA_site5769],8.61 ± 0.4
4,TCATTTTACAGATGTGCATGTGAATCAATCTATTTA [TGCATGCA_site787],8.69 ± 0.29
5,TGTAGTTTTTATTTATGTACGCATAACATAATTTAA [XGTACX_site104],8.62 ± 0.36
6,ACATAAATAATAAAAACACACATATGTACCTATATA [CACACA_site6982],8.65 ± 0.2
7,AAATTATTTCTTTGCGCATGTAGCTTTTATACTATT [TGCATGCA_site819],9.24 ± 0.36
8,AATACATGCTAAAAACGTACACGTATAAAATTATAT [XGTACX_site3169],8.62 ± 0.38
9,GGTGAAATTATTTCTACATGCAGAAATAATTAATTA [TGCATGCA_site194],9.04 ± 0.18
10,TTTTTTTTTTTGGCTAGTACATATGTATTTAAAATG [XGTACX_site7770],8.62 ± 0.42
11,AATTTAATATAATGCACACATAAAAAAAAAATCAAA [CACACA_site1],8.57 ± 0.28
12,TGTTGTTCCAATTTTTGTACATAAAACATATATATA [XGTACX_site5719],8.92 ± 0.37
13,AAAAAAAAAAATACTTGTACTTATATAATATATTAT [XGTACX_site8333],8.16 ± 0.36
14,AAAAAAAAAAAAAATTGTACATTAAATTAAAAGAAA [XGTACX_site8708],8.4 ± 0.45
15,AAGAAAATATAAAATGCACACTATAAATTGTATATA [CACACA_site7928],8.59 ± 0.23
16,ATTAGTATATTTCTCTGTACTTACATTAAAATATAA [XGTACX_site2217],8.49 ± 0.27
17,TTTTTATTTATATTTCATTGAAGTTAAATTATTTTA [XGTACX_negctrl_site575],8.21 ± 0.46
18,TACATTCTAATAATTGCACACTGGTTATTAAAAGGA [CACACA_site1614],8.4 ± 0.29
19,TTTTATCAATAAATTCGTACACATGAACTAGAGAGT [XGTACX_site5758],8.78 ± 0.44
